Counter-ions that a name gives are not always drawn. Whole data set: some 1,900 compounds, median “cell viability of compound + 1 nM pemigatinib relative to pemigatinib-only (DMSO) wells” near 0.95, cut for the lowest 2% near 0.22. This is one part of the list.
Test system: PDC-DUC18828
Experiment: cell viability of compound + 1 nM pemigatinib relative to pemigatinib-only (DMSO) wells (fraction); PDC-DUC18828 is a patient-derived cholangiocarcinoma cell line; higher = less growth inhibition
Settings: first compound 1 µM; pemigatinib concentration 1 nM; 72 h
Experimental: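 Selleck Bioactive library screen in the patient-derived FGFR2 fusion-positive ICC cell line PDC-DUC18828 (500 cells/well). Each compound was tested at 1 uM with 1 nM pemigatinib, in triplicate, for 72 h. Viability was read by CellTiter-Glo and normalised to plate DMSO controls. Value is the paper's averaged normalised viability.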

Compound	cell viability
O=C(O)c1ccccc1 [Benzoic Acid] + CCN1C(=O)N(c2c(F)c(OC)cc(OC)c2F)Cc2cnc3[nH]c(CN4CCOCC4)cc3c21 [pemigatinib]	0.991
CCCCC[C@H](O)/C=C/[C@H]1[C@H](O)CC(=O)[C@@H]1CCCCCCC(=O)O [Alprostadil] + CCN1C(=O)N(c2c(F)c(OC)cc(OC)c2F)Cc2cnc3[nH]c(CN4CCOCC4)cc3c21 [pemigatinib]	1
NC1=N[C@@](c2cccc(-c3cncnc3)c2)(c2ccnc(C(F)F)c2)c2cccc(F)c21 + CCN1C(=O)N(c2c(F)c(OC)cc(OC)c2F)Cc2cnc3[nH]c(CN4CCOCC4)cc3c21 [pemigatinib]	0.893
CCc1oc2ccccc2c1C(=O)c1cc(Br)c(O)c(Br)c1 [Benzbromarone] + CCN1C(=O)N(c2c(F)c(OC)cc(OC)c2F)Cc2cnc3[nH]c(CN4CCOCC4)cc3c21 [pemigatinib]	1
CC/C(=C(\c1ccccc1)c1ccc(OCCN(C)C)cc1)c1ccccc1 [Tamoxifen Citrate] + CCN1C(=O)N(c2c(F)c(OC)cc(OC)c2F)Cc2cnc3[nH]c(CN4CCOCC4)cc3c21 [pemigatinib]	0.892
Cn1cc(-c2ccc(S(=O)(=O)n3ccc(/C=C/C(=O)Nc4ccccc4N)c3)cc2)cn1 + CCN1C(=O)N(c2c(F)c(OC)cc(OC)c2F)Cc2cnc3[nH]c(CN4CCOCC4)cc3c21 [pemigatinib]	0.568
Cc1ccccc1N=Nc1ccc(NC(=O)c2ccnn2C)c(C)c1 + CCN1C(=O)N(c2c(F)c(OC)cc(OC)c2F)Cc2cnc3[nH]c(CN4CCOCC4)cc3c21 [pemigatinib]	0.947
CCN(CCCOc1ccc2c(Nc3cc(CC(=O)Nc4cccc(F)c4)[nH]n3)ncnc2c1)CCOP(=O)(O)O [Barasertib (AZD1152-HQPA)] + CCN1C(=O)N(c2c(F)c(OC)cc(OC)c2F)Cc2cnc3[nH]c(CN4CCOCC4)cc3c21 [pemigatinib]	0.745
Cc1c[nH]c(/C=C2\C(=O)Nc3ccccc32)c1CCC(=O)O + CCN1C(=O)N(c2c(F)c(OC)cc(OC)c2F)Cc2cnc3[nH]c(CN4CCOCC4)cc3c21 [pemigatinib]	0.946
CC[N+](CC)(CC)CCOc1cccc(OCC[N+](CC)(CC)CC)c1OCC[N+](CC)(CC)CC [Gallamine Triethiodide] + CCN1C(=O)N(c2c(F)c(OC)cc(OC)c2F)Cc2cnc3[nH]c(CN4CCOCC4)cc3c21 [pemigatinib]	0.975
CN(C)CCCCC(=O)Nc1ccc(NC(=S)NC(=O)c2ccc(C(C)(C)C)cc2)cc1 [Tenovin-6] + CCN1C(=O)N(c2c(F)c(OC)cc(OC)c2F)Cc2cnc3[nH]c(CN4CCOCC4)cc3c21 [pemigatinib]	0.977

Reference: the supplement of paper PMC9588766
